The results in this text go back to PMC4336329 (PLoS ONE, 2015).

Structures are written as SMILES. In all, about 310,000 compounds went through this assay and about 2,200 (0.71%) showed an effect of 50% or more. Effects have a minus sign here. Some of the results follow.

The test deals with human ether-à-go-go-related gene (hERG) potassium channel (human, UniProt Q12809). The test is described as follows: primary screen, population patch clamp on CHO cells stably expressing hERG.
human ether-à-go-go-related gene (hERG) potassium channel, sequence (Q12809 whole entry, looked up): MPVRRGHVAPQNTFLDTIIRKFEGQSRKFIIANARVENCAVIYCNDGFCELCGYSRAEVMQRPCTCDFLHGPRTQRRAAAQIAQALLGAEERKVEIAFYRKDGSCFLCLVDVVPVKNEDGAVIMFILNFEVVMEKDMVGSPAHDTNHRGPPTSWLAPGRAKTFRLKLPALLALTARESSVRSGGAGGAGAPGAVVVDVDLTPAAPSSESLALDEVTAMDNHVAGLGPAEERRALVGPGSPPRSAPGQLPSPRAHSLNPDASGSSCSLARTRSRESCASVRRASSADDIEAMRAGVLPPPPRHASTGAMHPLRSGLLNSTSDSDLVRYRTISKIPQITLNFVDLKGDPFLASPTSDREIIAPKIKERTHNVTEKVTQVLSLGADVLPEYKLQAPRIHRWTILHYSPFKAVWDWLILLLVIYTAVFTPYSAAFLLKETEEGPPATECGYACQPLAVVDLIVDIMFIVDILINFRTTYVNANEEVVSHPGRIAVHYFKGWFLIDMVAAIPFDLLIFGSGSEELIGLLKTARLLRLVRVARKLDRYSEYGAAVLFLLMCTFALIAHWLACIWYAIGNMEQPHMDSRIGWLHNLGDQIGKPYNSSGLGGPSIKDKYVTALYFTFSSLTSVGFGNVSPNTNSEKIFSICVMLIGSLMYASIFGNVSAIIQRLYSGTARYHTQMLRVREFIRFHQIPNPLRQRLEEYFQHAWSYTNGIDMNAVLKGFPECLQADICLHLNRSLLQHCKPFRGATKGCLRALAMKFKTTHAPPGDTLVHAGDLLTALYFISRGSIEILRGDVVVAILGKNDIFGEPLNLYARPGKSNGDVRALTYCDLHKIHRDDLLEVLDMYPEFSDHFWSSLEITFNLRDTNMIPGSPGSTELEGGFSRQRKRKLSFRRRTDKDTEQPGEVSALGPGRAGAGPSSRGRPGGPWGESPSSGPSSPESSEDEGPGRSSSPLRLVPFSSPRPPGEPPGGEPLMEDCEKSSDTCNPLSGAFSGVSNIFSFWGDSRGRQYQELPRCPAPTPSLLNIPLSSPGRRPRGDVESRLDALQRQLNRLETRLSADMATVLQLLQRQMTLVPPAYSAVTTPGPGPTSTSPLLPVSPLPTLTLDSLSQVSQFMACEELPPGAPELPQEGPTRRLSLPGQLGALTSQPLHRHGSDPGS
Consider `CCN(CC)CCN1C(=O)c2ccccc2NC1c1ccccc1F` (stereo not shown), for which the “hERG current change (%, negative = inhibition) at 1uM” value was -18.6%. Under `CCOC(=O)Cc1csc(NC(=O)Cc2ccccc2[N+](=O)[O-])n1` stands 15%. `Cc1ccc(S(=O)(=O)N(C(=O)c2ccncc2)c2ccc(OC(=O)c3ccncc3)cc2)c(C)c1`: the “hERG current change (%, negative = inhibition) at 1uM” value worked out at 1.2%. As for `CCOc1cc(/C=N/NC(=O)CSc2nncn2C)ccc1OCC(N)=O`, the “hERG current change (%, negative = inhibition) at 1uM” value worked out at 14.9%.

For the compound `CCOc1ncccc1C(=O)N1CCN(S(=O)(=O)c2ccc3ccccc3c2)CC1`, the “hERG current change (%, negative = inhibition) at 1uM” value is on record as -2.89%. `C=CCOC(=O)CN1C(=O)c2ccccc2C1=O`: the “hERG current change (%, negative = inhibition) at 1uM” value was determined as 10.1%.

As to `COc1ccc(/C=C(\C#N)C(=O)NCc2cccnc2)cc1OC`, the “hERG current change (%, negative = inhibition) at 1uM” value was 8.84%. Turning to `CCCCCNC(=O)c1ccc2c(c1)ncn2-c1ccc(OC)cc1`, the “hERG current change (%, negative = inhibition) at 1uM” value is listed as -7.59%. The result for `COc1cccc(-n2c(C)nn(C)c2=O)c1` reads 6.95%. Consider `CCCCn1c(N)c(N(CCOC)C(=O)c2cc(S(=O)(=O)N3CCOCC3)ccc2F)c(=O)[nH]c1=O`, for which the “hERG current change (%, negative = inhibition) at 1uM” value is listed as 9.13%. Consider `O=C(Nc1ccc(Cl)cn1)Nc1ccccc1F`, for which the “hERG current change (%, negative = inhibition) at 1uM” value is given as 0.928%.

`Nc1c(-c2ccccc2)nnn1Cc1ccccc1`: the “hERG current change (%, negative = inhibition) at 1uM” value came out at 12.2%. With `Cc1ccc(OCC(=O)NNC(=O)c2ccc(-n3cncn3)c([N+](=O)[O-])c2)cc1`, the “hERG current change (%, negative = inhibition) at 1uM” value is 15.4%. The result for `O=C(O)CCC(=O)Nc1ccccc1N1CCOCC1` reads 6.2%; that for `CC(=O)N(C)c1cccc(-c2ccc3nnc(C)n3n2)c1`, 13.3%.

Regarding `O=C(c1ccc(N2CCCC2=O)cc1)N1CCN(c2ccccc2F)CC1`, the “hERG current change (%, negative = inhibition) at 1uM” value is 14.8%. Regarding `Cc1cc(C)n(-c2nnc(SCC(=O)NC3CCCC3)c3ccccc23)n1`, the “hERG current change (%, negative = inhibition) at 1uM” value is given as 5.79%. `Cc1ccc(N(CC(=O)NCc2ccc(Cl)cc2)S(C)(=O)=O)cc1`: the “hERG current change (%, negative = inhibition) at 1uM” value was found to be 11.5%.

In the case of `COc1ccc(/C=N/c2c(-c3ccco3)nc3ccccn23)cc1OC`, the “hERG current change (%, negative = inhibition) at 1uM” value stood at 8%.

In the case of `NC(=O)[C@H]1CC2(CC(c3cccc(NC(=O)[C@H]4CCC(=O)N4)c3)=NO2)CN1C(=O)c1ccccc1` (stereo partly shown), the “hERG current change (%, negative = inhibition) at 1uM” value stood at 12.1%. Under `CCc1nnc(NC(=O)C2CSC3(C)CCC(=O)N23)s1` (stereo not shown) stands 7.28%. In the case of `COc1ccc(NC(=O)CN(C)C(=O)CSc2nc3ccccc3s2)cc1`, the “hERG current change (%, negative = inhibition) at 1uM” value is listed as 6.17%. The result for `O=C(NCc1ccccc1Cl)C1CCC(CNc2c(N3CCOCC3)c(=O)c2=O)CC1` (stereo not shown) reads 28.3%. Under `CCOC(=O)Cc1cc(-c2ccccc2)nc2ccc3ccccc3c12` stands 22.6%. As to `O=C(O)/C=C/C(=O)NNc1ccc([N+](=O)[O-])cc1`, the “hERG current change (%, negative = inhibition) at 1uM” value is reported as 9.55%. With `CSc1ncc(Cl)c(C(=O)Nc2nnc(SC)s2)n1`, the “hERG current change (%, negative = inhibition) at 1uM” value is 9.79%. Take `O=C(N/N=C/c1ccccn1)c1ccc(S(=O)(=O)N2CCCCCC2)cc1`: the “hERG current change (%, negative = inhibition) at 1uM” value came to 8.69%. Take `Cc1ccsc1/C=N\Nc1cn[nH]c(=O)c1Cl`: the “hERG current change (%, negative = inhibition) at 1uM” value is 15.5%. As to `Cc1cccc2c1CC(C)(C)N/C2=C\C(N)=O`, the “hERG current change (%, negative = inhibition) at 1uM” value stood at 3.56%. Under `CSCCOC(=O)COc1ccc(/C=N/NC(=O)c2c(Cl)cnn2C)cc1` stands 6.26%. For the compound `C=C[C@H](CC(C)C)N(Cc1ccccc1)S(=O)(=O)N(Cc1ccc(OC)cc1)[C@H](C=C)CC(C)C`, the “hERG current change (%, negative = inhibition) at 1uM” value is 8.02%. Regarding `COc1ccc(Nc2ccncc2[N+](=O)[O-])cc1`, the “hERG current change (%, negative = inhibition) at 1uM” value amounted to 3.97%. With `CCCCCN(C(=O)CCC(=O)OCc1cccc(C)c1)c1c(N)n(CCCC)c(=O)[nH]c1=O`, the “hERG current change (%, negative = inhibition) at 1uM” value amounted to 7.24%. In the case of `CCN(CC)c1ccc(S(=O)(=O)N2CCOCC2)cc1NC(=O)CSc1cccc[n+]1[O-]`, the “hERG current change (%, negative = inhibition) at 1uM” value is on record as 6.8%. Consider `CCOC(=O)N1CCC(NC(=O)CC2C(=O)NCCN2Cc2ccccc2)CC1` (stereo not shown), for which the “hERG current change (%, negative = inhibition) at 1uM” value was found to be 3.07%. Under `COc1ccc(CNC(=O)CCCn2ncn3c(cc4occc43)c2=O)cc1` stands 4.81%; under `CCCCNc1c(-c2ccc(SC(C)CC)c(OC)c2)nc2ccc(C)cn12.O=C(O)C(F)(F)F` (stereo not shown), 7.82%. Turning to `CCN(CC)CCC(=O)N1c2ccccc2CCc2ccc(NC(=O)OC)cc21.Cl`, the “hERG current change (%, negative = inhibition) at 1uM” value is listed as 4.03%. Under `O=C(O)CCC(=O)Nc1ccc(-c2nc3ccc(C(=O)c4ccccc4)cc3[nH]2)cc1` stands 15%; under `CCN1C(=O)C(O)(CC(=O)c2cccc(-n3cccc3)c2)c2ccccc21` (stereo not shown), 6.22%; under `CSCC(C)N1CCC(CO)(CCCc2ccccc2)CC1` (stereo not shown), -11.2%. Regarding `COc1cc(-c2n[nH]c(=S)n2-c2ccccc2C(F)(F)F)cc(OC)c1OC`, the “hERG current change (%, negative = inhibition) at 1uM” value is 9.36%. Consider `CCCN1C(=O)SC(CC(=O)Nc2cccc3ccccc23)C1=O` (stereo not shown), for which the “hERG current change (%, negative = inhibition) at 1uM” value worked out at 13.7%. The result for `CC(C(=O)N1CCc2ccccc21)N(C)CC(=O)Nc1ccccc1Cl` (stereo not shown) reads -5.44%; that for `CN=C1CN(O)C(c2ccccc2)=c2cc(Cl)ccc2=N1`, 17.4%; that for `CC(C)CN1C(=O)c2ccc(NC(=O)C3CC3)cc2C1=O`, -6.71%. The result for `CCCCNS(=O)(=O)c1ccc2nc(SCC(=O)Nc3cc(C)cc(C)c3)[nH]c2c1` reads 13.2%; that for `Cc1ccc(-n2nc(C)c(C(=O)O)n2)c(C)c1`, -4.18%; that for `CCC(C)(C)n1nnnc1CN1CCC(NC(=O)c2ccc(Br)cc2)CC1`, -4.98%. As to `CCOc1cc(/C=N/NC(=O)c2ccc(=O)n(C)c2)ccc1O`, the “hERG current change (%, negative = inhibition) at 1uM” value was determined as 8.84%. Regarding `CC(=O)c1cccc(N(CC(=O)NC2CCCC2)C(=O)c2csnn2)c1`, the “hERG current change (%, negative = inhibition) at 1uM” value is reported as 14.5%. Under `Cc1c(C(=O)NC(C)C)sc2ncn(CC(=O)N3CCC(C)CC3)c(=O)c12` stands 4.94%; under `CN(c1ccccc1)S(=O)(=O)c1cccc(NC(=O)c2ccc(=O)[nH]c2)c1`, 1.56%. Take `COc1ccc(CNC(=O)c2ccccc2SCC(=O)NCc2ccco2)cc1`: the “hERG current change (%, negative = inhibition) at 1uM” value is on record as -0.751%. Under `O=C(CCOc1ccccc1)Nc1cccc([N+](=O)[O-])c1` stands 1.19%; under `COc1ccc2c(C)cc(SCC(=O)c3ccc4c(c3)OCO4)nc2c1`, -2.85%; under `O=C(CN1C(=O)NC2(CCCC2)C1=O)N1CCc2ccccc2C1`, 14.4%.

As for `COc1ccc(O)c(CN2CCCC(N3CCN(c4ccc(F)cc4)CC3)C2)c1` (stereo not shown), the “hERG current change (%, negative = inhibition) at 1uM” value was -12.5%.

`Cc1ccc(-c2ccc(SCC(=O)NCC3CCCO3)nn2)cc1` (stereo not shown): the “hERG current change (%, negative = inhibition) at 1uM” value worked out at 6.79%. For the compound `CCOC(=O)c1c(-c2ccccc2)oc2ccc(OCC(O)CN(C)C)cc12` (stereo not shown), the “hERG current change (%, negative = inhibition) at 1uM” value was 11.2%. For the compound `O=C(Nc1ccccc1)OCc1cncs1`, the “hERG current change (%, negative = inhibition) at 1uM” value is listed as 15.4%. Turning to `CCN1CCN(Cc2c(O)ccc3c2O/C(=C\c2ccccc2)C3=O)CC1`, the “hERG current change (%, negative = inhibition) at 1uM” value is given as 8.87%. Under `O=C(CN1C(=O)NC2(CCCCC2)C1=O)N1CCN(c2ncccn2)CC1` stands 8.16%. For the compound `COC(=O)c1ccc(NC(=O)c2ccc3nsnc3c2)cc1`, the “hERG current change (%, negative = inhibition) at 1uM” value is on record as 11.7%. Consider `O=C(NC(=S)Nc1ccc(S(=O)(=O)Nc2nccs2)cc1)c1ccc(F)c(F)c1`, for which the “hERG current change (%, negative = inhibition) at 1uM” value was 11.5%. Under `c1ccc(Cn2cc(-c3cccnc3)cn2)cc1` stands 10.4%. For the compound `Cn1c(-c2ccc(F)cc2)cnc1NCc1cccc([N+](=O)[O-])c1`, the “hERG current change (%, negative = inhibition) at 1uM” value was -8.52%. Regarding `CCN1CCN(c2ccc(S(=O)(=O)N3CCCCC3)cc2NC(=O)c2cccc(C(F)(F)F)c2)CC1`, the “hERG current change (%, negative = inhibition) at 1uM” value is -0.449%.

Consider `COc1cc(NS(=O)(=O)c2ccc(NC(=S)NC(=O)c3sc4cc(F)ccc4c3Cl)cc2)nc(OC)n1`, for which the “hERG current change (%, negative = inhibition) at 1uM” value is recorded as 11.1%. With `CC(=O)C(C)n1c(CN2CCN(C(=O)c3ccco3)CC2)nc2c1c(=O)n(C)c(=O)n2C` (stereo not shown), the “hERG current change (%, negative = inhibition) at 1uM” value came to 16.2%.

Take `N#Cc1cncc(-c2ccc3c(c2)OCCOCCOCCOCCOCCO3)n1`: the “hERG current change (%, negative = inhibition) at 1uM” value is recorded as -95.2%. Regarding `O=C(O)C(=O)O.O=[N+]([O-])c1ccccc1CNCCc1c[nH]c2ccccc12`, the “hERG current change (%, negative = inhibition) at 1uM” value stood at 1.33%. `Clc1ccc(OCCCN2CCCCC2)c(Br)c1.O=C(O)C(=O)O`: the “hERG current change (%, negative = inhibition) at 1uM” value was -38.6%. Under `COc1cccc(C(=O)O[C@H]2[C@H](C)NS(=O)(=O)[C@H]3C[C@@H]4C=C[C@]23O4)c1` stands 17.9%; under `CCOC(=O)c1cnn(-c2ccc(NS(=O)(=O)c3ccc(Cl)cc3)cc2)c1C(F)(F)F`, 8.18%; under `O=C(CS(=O)(=O)c1ccc(Cl)cc1)NCc1ccccc1`, 13.6%. With `COc1cccc(C(=O)N(Cc2cc3cc(C)ccc3[nH]c2=O)CC2CCCO2)c1` (stereo not shown), the “hERG current change (%, negative = inhibition) at 1uM” value is given as 4.75%. As to `O=C(NN1CCOCC1)c1ccc(F)cc1`, the “hERG current change (%, negative = inhibition) at 1uM” value came out at 2.68%.

As for `Cc1nc2ccccn2c1C(=O)NC1CCCc2ccccc21` (stereo not shown), the “hERG current change (%, negative = inhibition) at 1uM” value is recorded as -2.74%.

Consider `CCCS(=O)(=O)c1nc(S(=O)(=O)c2ccc(C)cc2)c(NCc2ccc3c(c2)OCO3)s1`, for which the “hERG current change (%, negative = inhibition) at 1uM” value was found to be 13.2%.

As to `CC(C)Cc1nc(N2CCN(C(=O)c3ccco3)CC2)c(C#N)c2c1CCCC2`, the “hERG current change (%, negative = inhibition) at 1uM” value was 5.31%. On to `COc1ccc(NC(=O)CN(c2ccc([N+](=O)[O-])cc2)S(=O)(=O)c2ccccc2)c(OC)c1`, for which the “hERG current change (%, negative = inhibition) at 1uM” value is 6.08%. As to `Cc1[nH]c2c(C)cccc2c1CCNS(=O)(=O)c1cccc([N+](=O)[O-])c1`, the “hERG current change (%, negative = inhibition) at 1uM” value is recorded as 9.73%.

As to `CC(C)(C)Cc1nnc(NC(=O)CCc2ccccc2)s1`, the “hERG current change (%, negative = inhibition) at 1uM” value came to 8.6%. In the case of `COc1ccc(C(C(=O)NC(C)(C)C)N(C(=O)CCC(=O)Nc2ccccn2)C2CCCCC2)cc1` (stereo not shown), the “hERG current change (%, negative = inhibition) at 1uM” value was 2.87%.
